{"source": "PubChem BioAssay AID686978", "about": "(National Center for Advancing Translational Sciences (NCATS), 2013)", "note": "In all, about 420,000 compounds went through this assay and about 64,000 (15%) were called active. This list was built around the results that the source calls inconclusive (neither active nor inactive); the mix of calls is not that of the screen. Calls follow the shape of the dose curve; as a rule, active = well fitted inhibition curve with a large enough effect; inconclusive = small, poorly fitted or top-dose-only effect; inactive = flat fitted curve, though single readings scatter. Potencies of inconclusive entries are left out as doubtful fits. % is scaled to controls: 0 for no effect and ±100 for the full control effect; potency is read from the fitted curve at half-maximal effect; tags tell the direction and shape of the fitted curve.", "data": [{"assay": "qHTS for Inhibitors of human tyrosyl-DNA phosphodiesterase 1 (TDP1): qHTS in cells in absence of CPT; also: nearly all actives have a fitted effect of over 55% in size", "conditions": "DT40 Tdp1-/- hTDP1 cells, no CPT, ATP luminescence, 48 h; activity change, negative = growth inhibition: at 46.2 µM (top of the series)", "outline": "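Compound effects on proliferation are scored in DT40 Tdp1-/-;hTDP1 cells in the absence of CPT. ATP levels (CellTiter-Glo luminescence) are recorded after a ≥48 hr, 37 °C incubation.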", "values": [{"smiles": "COCCNC(=O)C(c1ccc(C)cc1)N(C(=O)CCC(=O)Nc1ccccn1)c1cccc(C)c1", "note": "(stereo not drawn)", "activity change, negative = growth inhibition": "inconclusive: -30.7% [inhibitor]"}, {"smiles": "CC(/C=N/NC(=O)c1cnccn1)=C\\c1ccco1", "activity change, negative = growth inhibition": "inconclusive: -33.8% [inhibitor]"}, {"smiles": "O=C(N/N=C/c1ccc2nccnc2c1)c1ccc(Br)cc1", "Potency": "inconclusive [inhibitor, single point]"}, {"smiles": "CCOc1ccc(CCN2C(=S)N([C@@H](CC(C)C)CN3CCC[C@@H]3CN3C(=S)NC[C@@H]3Cc3ccc(O)cc3)C[C@@H]2CC(C)C)cc1", "Potency": "active: 23.1 µM"}, {"smiles": "N/C(=N/OC(=O)c1ccccc1Cl)c1ncc([N+](=O)[O-])s1", "Potency": "active: 8.2 µM"}, {"smiles": "COc1ccc2[nH]cc(CCNc3ncncc3-c3cccnc3)c2c1", "activity change, negative = growth inhibition": "inconclusive: -31% [inhibitor]"}, {"smiles": "O=C(Nc1ccc(F)cc1)N1CCc2ccccc2C1", "Potency": "inconclusive [inhibitor, single point]"}, {"smiles": "CCOc1ccc(NC(=O)COc2ccc3c(c2)CCC3)cc1OC", "activity change, negative = growth inhibition": "inactive: -23.6%"}, {"smiles": "Cc1cc(NC(=O)c2cc(C(C)C)on2)no1", "Potency": "inconclusive [inhibitor, partial curve, poor fit]"}, {"smiles": "O=C(CSc1nc2ccccc2[nH]1)NC1CCCC1", "activity change, negative = growth inhibition": "inactive: -12%"}, {"smiles": "Cc1ccc(C(=O)CSc2nnc(CNc3nc(-c4ccccc4)cs3)n2C)cc1", "Potency": "inconclusive [inhibitor, single point]"}, {"smiles": "Cc1c(C(=O)N2CCN(S(=O)(=O)c3ccccc3)CC2)oc2ccccc12", "Potency": "inconclusive [inhibitor, single point]"}, {"smiles": "COC(=O)CSc1nnc(CNC(=O)c2ccc(OC)c(OC)c2)n1C", "activity change, negative = growth inhibition": "inactive: 2.42%"}, {"smiles": "O=c1ccc2cc(S(=O)(=O)NCc3ccccc3)ccc2[nH]1", "activity change, negative = growth inhibition": "inactive: -13.9%"}, {"smiles": "C=C1SC(Nc2c(C)cccc2C)=NC12CCCCC2", "Potency": "inconclusive [inhibitor, single point]"}, {"smiles": "CCc1cccc(NC(=O)C2CCCN(S(=O)(=O)c3ccc4[nH]c(=O)ccc4c3)C2)c1", "note": "(stereo not drawn)", "activity change, negative = growth inhibition": "inactive: -3.92%"}, {"smiles": "Cc1cccc(-c2cccc(C(=O)N3CCc4c(cnc(C)c4CNC(=O)c4cncs4)C3)c2)c1", "Potency": "inconclusive [inhibitor, single point]"}, {"smiles": "O=C(NCc1ccc(F)cc1)C(=O)NCC(c1cccs1)S(=O)(=O)c1cccs1", "note": "(stereo not drawn)", "Potency": "inconclusive [inhibitor, partial curve]"}, {"smiles": "COc1ccc(CNC(=O)c2ccc3ccccc3n2)cc1OC", "Potency": "inconclusive [inhibitor, single point]"}, {"smiles": "O=C(CS(=O)(=O)Cc1ccccc1)Nc1ccc(S(=O)(=O)N2CCCCCC2)cc1", "Potency": "inconclusive [inhibitor, partial curve]"}, {"smiles": "O=C(NCCN1C(=O)S/C(=C\\c2ccc(OC(F)F)cc2)C1=O)[C@@H]1CCCN1C(=O)c1cccs1", "Potency": "inconclusive [inhibitor, single point]"}, {"smiles": "Cc1cc(C)c(NC(=O)Cn2nc3c(cc2=O)CCCC3)c(C)c1", "activity change, negative = growth inhibition": "inactive: -5.08%"}, {"smiles": "COCCCN1C(=O)N(c2ccccc2)C(=O)C1CC(=O)Nc1ccc(F)cc1", "note": "(stereo not drawn)", "Potency": "inactive"}, {"smiles": "O=C(Nc1ccc2c(c1)OCCO2)C(C1CC1)n1c(=O)c(-c2cc3ccccc3[nH]2)nc2ccccc21", "note": "(stereo not drawn)", "Potency": "inconclusive [inhibitor, single point]"}, {"smiles": "NC(N)=N/N=C/c1cccc(Cl)c1Cl", "Potency": "inconclusive [inhibitor, single point]"}, {"smiles": "C=CCNc1nc(-c2c(C)nc3ncccn23)cs1", "activity change, negative = growth inhibition": "inactive: -23.2%"}, {"smiles": "CC(C)CC(=O)N1CCN(Cc2ccc(C(F)(F)F)cc2)CC1", "Potency": "inconclusive [inhibitor, single point]"}, {"smiles": "O=C(NCc1ccc2c(c1)CCN2C(=O)c1ccc(F)cc1)c1ccc(Br)o1", "Potency": "active: 4.11 µM"}, {"smiles": "O=C(Cn1ncc2c1-c1ccccc1OC2)N1CCc2ccccc21", "Potency": "inconclusive [inhibitor, single point]"}, {"smiles": "O=C(CSC1=NS(=O)(=O)c2cc(Cl)ccc2N1)NCCc1ccccc1", "activity change, negative = growth inhibition": "inactive: 7.82%"}, {"smiles": "CCN(c1ccc(NC(=O)CSCc2c(C)noc2C)cc1)C(C)C", "activity change, negative = growth inhibition": "inactive: -16.9%"}, {"smiles": "COc1ccc(C(CNC(=O)c2ccc(S(=O)(=O)N3CC(C)CC(C)C3)cc2)N(C)C)cc1", "note": "(stereo not drawn)", "Potency": "active: 29.1 µM"}, {"smiles": "CCOc1ccc(S(=O)(=O)Nc2ccccn2)c2ccccc12", "activity change, negative = growth inhibition": "inactive: -4.94%"}, {"smiles": "NC(=O)/C=C/C(=O)Nc1ccc(Cl)cc1", "Potency": "active: 8.2 µM"}, {"smiles": "CCNc1nc(OC)nc(N(OC)S(=O)(=O)c2ccc(C)cc2)n1", "activity change, negative = growth inhibition": "inactive: 0.642%"}, {"smiles": "COc1cc(OC)cc(C(=O)Nc2cc3nn(-c4ccccc4)nc3cc2Cl)c1", "Potency": "active: 16.4 µM"}, {"smiles": "CC(O)(c1ccc(F)c(F)c1)c1nc(-c2cc(F)cc(F)c2)cs1", "note": "(stereo not drawn)", "Potency": "active: 16.4 µM"}, {"smiles": "COc1ccc(S(=O)(=O)N2CCCCCC2)cc1C(=O)N(C)CC(=O)Nc1ccc(Cl)c(Cl)c1", "Potency": "inconclusive [inhibitor, single point]"}, {"smiles": "Cc1cc(C)n2c(NC3CCCC3)c(-c3cc4ccccc4o3)nc2n1", "Potency": "inconclusive [inhibitor, single point]"}, {"smiles": "C[C@@H]1Cc2c(O)c(O)cc(O)c2C(=O)O1", "Potency": "inconclusive [inhibitor, single point]"}, {"smiles": "CCOC(=O)c1c(NC(=O)c2nn(CC)cc2Br)c(C#N)cn1-c1ccccc1", "Potency": "active: 20.6 µM"}, {"smiles": "C=C(c1ccccc1C)[n+]1ccccc1", "Potency": "inconclusive [inhibitor, single point]"}, {"smiles": "COc1cc2c(cc1OC)-c1cc(NC3CCCCCC3)nc(=O)n1CC2", "Potency": "inconclusive [inhibitor, single point]"}, {"smiles": "Cc1ccsc1/C=N/NC(=O)c1ccc2ccccc2c1", "Potency": "active: 18.4 µM"}, {"smiles": "CCCOc1cccc(OCCSc2nc(C)cc(=O)[nH]2)c1", "activity change, negative = growth inhibition": "inactive: -17.7%"}, {"smiles": "COc1ccccc1C(=O)NC1CCCCCCC1", "Potency": "inconclusive [inhibitor, single point]"}, {"smiles": "CCCc1cc(=O)oc2cc(OCC(=O)Nc3ccc4c(c3)OCCO4)ccc12", "activity change, negative = growth inhibition": "inactive: -13.5%"}, {"smiles": "COc1ccc(Cl)cc1NC(=O)CN(C)C(=O)c1cc2ccccc2cc1O", "Potency": "inconclusive [inhibitor, partial curve]"}]}]}
